# Source: PubChem BioAssay AID1347073 (National Center for Advancing Translational Sciences (NCATS), 2019)
# The campaign covered roughly 45,000 compounds. About 200 (0.44%) were called active. About 7% were inconclusive and are not listed. Calls come from the whole dose curve; as a rule, active = well fitted activation curve with a large enough effect; inconclusive = small, poorly fitted or top-dose-only effect; inactive = no such curve, though single readings can be large or run the other way. The list shows a part of the results.
# Assay: qHTS of TDP-43 Inhibitors: NCGC Sytravon Library Screen; note: 0% is about no effect; nearly all actives have a fitted effect of over 55% in size
# Settings: yeast TDP-43 toxicity rescue, BacTiter-Glo growth, 24 h; series mostly up to 46.1 µM; growth rescue (activation): at the top concentration
# Summary of the method: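 TDP-43-expressing yeast, pregrown in raffinose, seeded at OD600 0.02 in galactose medium with compound for 24 hr at 30 deg C. Growth read by BacTiter-Glo luminescence, so rescue of toxicity appears as activation.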
Structure (SMILES),growth rescue (activation),Potency
CC1CCCC(NC(=O)C2N(CCCN3CCCC3)C(=O)C3C(C(=O)Nc4cccc(Cl)c4)C4C=CC32O4)C1C (stereo not drawn),inactive: 5.91%,
CCNC(=O)C1(C)CCCN(Cc2cc(-c3ccccc3)n(C)n2)C1 (stereo not drawn),inactive: 10.3%,
CCN(CC)c1ccc(NC(=S)NC(=O)Cc2ccccc2)cc1,inactive: -6.94%,
O=C(NCC(=O)N(c1cccnc1)C(C(=O)NC1CCCCC1)c1ccccc1)c1ccco1 (stereo not drawn),inactive: 13%,
COc1cccc(CNCC(=O)NC(=O)NC2CCCC2)c1,inactive: -8.73%,
Nc1nc(SCC(=O)N2N=C3/C(=C\c4ccco4)CCCC3C2c2ccco2)n[nH]1 (stereo not drawn),inactive: 12.2%,
O=S(=O)(c1cccs1)N1CCN(c2ccccc2F)CC1,inactive: 16.9%,
COc1ccc(/C=C/C2=NN(Cc3ccccc3)C(=O)CC2)cc1,inactive: 6.07%,
C/C(=N\NC(=O)Cn1ccc(C(F)(F)F)n1)c1ccc(N2CCOCC2)cc1,inactive: 34.6%,
Cc1ccc(NC(=O)c2ccc(Oc3ncccn3)cc2)cc1,inactive: 15.3%,
O=C(CNc1cc(S(=O)(=O)N2CCOCC2)ccc1N1CCOCC1)Nc1cccc(C(F)(F)F)c1,inactive: 0.031%,
Cc1ccc(C(=O)NCCCNC(=O)COc2ccccc2Cl)cn1,inactive: 8.01%,
Cc1ccc(S(=O)(=O)N2CCN(C(=O)CN(Cc3ccco3)Cc3cccs3)CC2)cc1,inactive: -5.37%,
CCCC(=O)NC(c1ccc(N(C)C)cc1)c1ccc2cccnc2c1O (stereo not drawn),inactive: -0.524%,
COc1cc(C2NC(=S)NC3=C2C(=O)CCC3)ccc1O (stereo not drawn),inactive: 3.86%,
COc1cccc(C(=O)/C=C/Nc2ccc(S(=O)(=O)Nc3onc(C)c3C)cc2)c1,inactive: -3.06%,
CN(C)CCCOC(=O)c1sc2ccccc2c1Cl,inactive: 1.99%,
CCCCOP(=O)(OCCCC)C(Nc1ccc(C(=O)OCC)cc1)c1ccncc1 (stereo not drawn),inactive: 5.24%,
COc1cccc(C(=O)N2CCC(C(=O)NCc3ccc(C)cc3)CC2)c1,inactive: -5.21%,
COc1cccc2c1Oc1cc([N+](=O)[O-])cc(N(C)C(C)=O)c1C=C2,inactive: 6.02%,
COc1ccc(C)cc1NC(=O)N1CCCc2ccccc21,inactive: -1.73%,
O=C(Cn1cncn1)N/N=C/c1ccccc1O,inactive: 28.2%,

Structure (SMILES),growth rescue (activation),Potency
NS(=O)(=O)c1cccc(NC(=O)CSc2nnc(C3CC3)n2Cc2ccccc2)c1,inactive: -4.8%,
CCOc1ccc2cc(S(=O)(=O)N3CCCCC3)ccc2c1,inactive: 2.53%,
O=C(Cc1ccc(Br)cc1)N1CCN(C(=O)c2ccco2)CC1,inactive: 7.24%,
COC(=O)N1CCCCC1c1cc(C(=O)NCc2cccnc2)no1 (stereo not drawn),inactive: -3.03%,
COc1ccc(S(=O)(=O)N2CCOCC2)cc1NC(=O)Cc1coc2cc(C)ccc12,inactive: 13.8%,
O=C(NCCC1=CCCCC1)c1ccc2c(c1)N(Cc1ccccc1)C(=O)c1ccccc1S2(=O)=O,inactive: 10.2%,
CC(=O)CCc1ccc(OCC(=O)Nc2cccc(S(=O)(=O)N(C)c3ccccc3)c2)cc1,inactive: -1.78%,
Cc1cc(C)cc(NC(=O)CCCN2C(=O)COc3ccc(C)cc32)c1,inactive: 20.3%,
COc1cccc(C2C(C(=O)c3ccco3)=C(O)C(=O)N2CCCN2CCOCC2)c1OC (stereo not drawn),inactive: -25.2%,
CCOC(=O)N1CCN(C(=O)c2ccc(C)c(S(=O)(=O)N3CCCCC3)c2)CC1,inactive: 11.9%,
Cc1ccc(N(CC(=O)NCC2CCCO2)C(=O)CCC(=O)Nc2nccs2)cc1 (stereo not drawn),inactive: 24.2%,
Cc1ccc(OCCSc2nc3ccccc3n2CC(=O)O)c(C(C)C)c1,inactive: 2.9%,
CC1/C(=N/O)CC(c2ccco2)NC1c1ccco1 (stereo not drawn),inactive: 15%,
Cc1cc(=O)[nH]c(/N=C(\N)Nc2ccc3c(c2)OCCO3)n1,inactive: 12.4%,
O=C(Nc1ccc(F)c(Cl)c1)C1CC(=O)n2c(nc3ccccc32)N1 (stereo not drawn),inactive: -3.37%,
O=[N+]([O-])c1ccc(N2CCN(S(=O)(=O)c3ccccc3)CC2)cc1NCC1CCCO1 (stereo not drawn),inactive: -10.1%,
COc1cc(NC(=O)c2ccccc2)c(OC)cc1NC(=O)Cc1cccs1,inactive: -7.11%,
O=C(OCc1cc([N+](=O)[O-])cc2c1OCOC2)c1cccnc1SC(F)F,inactive: 19.8%,
CCc1ccc(C(O)c2ncc(-c3ccccc3C)[nH]2)cc1 (stereo not drawn),inactive: 3.19%,
C/C(N)=C(/C#N)C(=O)COC(=O)c1cc(-c2ccc(Br)cc2)nc2ccccc12,,inactive
CCCCOP(=O)(c1ccc(N(C)C)cc1)C(O)c1ccc(OC)c(OC)c1 (stereo not drawn),inactive: 17.2%,
CCCn1c(N)c(C(=O)CSc2nc(C3CC3)n(-c3ccccc3)n2)c(=O)[nH]c1=O,inactive: 10.3%,

Structure (SMILES),growth rescue (activation),Potency
COc1ccc2[nH]c(=O)c(CNc3cc(C)ccc3C)cc2c1,inactive: -8.44%,
Cc1cccc(C(=O)OCC(=O)N2CCCCCC2)c1C,inactive: -11%,
Cc1cc(Cl)ccc1C(O)c1ncc(-c2ccccc2C(F)(F)F)[nH]1 (stereo not drawn),inactive: 12.1%,
CC(Sc1nnc(COc2ccccc2)n1Cc1ccccc1)C(=O)O (stereo not drawn),inactive: 9.82%,
NC(=O)c1ccccc1OCC(=O)O,inactive: 1.22%,
COc1ccc(N2CCN(C(=O)COCC(=O)O)CC2)cc1,inactive: 0.298%,
COc1ccc(OC)c(Cc2nnc(CCC(=O)N3CCC(N4CCCCC4)CC3)o2)c1,inactive: -1.66%,
CCCCNS(=O)(=O)c1ccc(NC(=O)Cc2ccc(OC)cc2)cc1,inactive: 4.59%,
CNC(=O)Nc1ccccc1C(=O)Nc1ccccc1,inactive: -18.2%,
Clc1ccc(SCCn2ccnc2)cc1,inactive: -21.5%,
COc1ccc(CC(=O)N2CCC(c3ccccc3)C2)cc1 (stereo not drawn),inactive: 28.5%,
CCCn1c2c(c(O)c(C(=O)Nc3ccc(OC)cc3)c1=O)CCCC2,inactive: 5.21%,
OCCNc1ncnc2c1ncn2[C@H]1CN(Cc2cccs2)C[C@@H](CO)O1,inactive: -0.183%,
CCNC(=O)NC(=O)COC(=O)CCCSc1nc2ccccc2[nH]1,inactive: 24.5%,
COc1ccccc1NC(=O)COC(=O)C12CC3CC(CC(Cl)(C3)C1)C2,inactive: 19.5%,
CC(C)CNc1ncnc2c1ncn2[C@H]1CN(Cc2ccco2)C[C@@H](CO)O1,inactive: -12%,
Cc1cc(N2CCCCC2C)nc(-c2ccccc2O)n1 (stereo not drawn),inactive: 1.02%,
Cc1ccc(S(=O)(=O)N2CCOCC2)cc1C(=O)N1CC(C)CC(C)C1 (stereo not drawn),inactive: -6.89%,
CCCNC(=O)C1(C)CCCN(C(=O)C(c2ccccc2)c2ccccc2)C1 (stereo not drawn),inactive: 8.64%,
CCCCC(=O)N1CC(=O)Nc2ccc(F)cc2C1c1ccccc1 (stereo not drawn),inactive: 5.75%,
CNc1nc(Oc2ccc3sc(C)nc3c2)c2sccc2n1,inactive: 18.3%,
CC(=O)N1CCOCC1c1cc(C(=O)Nc2ccccc2)no1 (stereo not drawn),inactive: 7.83%,

Structure (SMILES),growth rescue (activation),Potency
CC(C)CC(=O)NC(=S)Nc1nc(-c2ccccc2)cs1,inactive: 19.3%,
CCN(CC)CCCC1(CN)OCCc2ccccc21 (stereo not drawn),inactive: 15.4%,
CC(=O)NCCNc1nc2cc(-c3ccc(C)cc3)sc2c(=O)n1C,inactive: -3.79%,
COc1ccccc1N1CCN(/N=C/C=C/c2ccccc2[N+](=O)[O-])CC1,inactive: 32%,
CCOC(=O)c1[nH]c2ccc(OCC)cc2c1CCCN1C(=O)c2ccccc2C1=O,inactive: 15.4%,
Cc1ccc(NC(=S)N2CCN(C(=O)C3CCCO3)CC2)cc1 (stereo not drawn),inactive: -12%,
O=C(NCc1ccccn1)C(=O)NCc1ccccn1,inactive: 4.43%,
Cc1sc(NC(=O)c2ccccc2)c(C(=O)c2ccccc2)c1C,inactive: 28.7%,
O=C(NC1CCCCC1)C(c1ccncc1)N(C(=O)c1csnn1)c1ccc(F)cc1 (stereo not drawn),inactive: -14.3%,
O=c1c(C(c2ccc(Br)cc2)c2c(O)nc3n(c2=O)CCCS3)c(O)nc2n1CCCS2,inactive: -3.29%,
CCCCNC(=O)C1CCCN1S(=O)(=O)c1cccc2nsnc12 (stereo not drawn),inactive: 26.6%,
O=C(Nn1cnnc1)c1cc(Cl)cc(Cl)c1,inactive: 7.46%,
CN1CCNC(=O)C1CC(=O)N1CC=C(c2ccc(F)cc2)CC1 (stereo not drawn),inactive: -1.24%,
Cc1nonc1NC(=O)CSc1nc2ccccc2o1,inactive: 17%,
CCCSc1cc(=O)n(-c2ccccc2)nc1C(=O)O,inactive: 7.25%,
C=CCN1C(=O)C(C)S/C1=N\S(=O)(=O)c1ccc(Cl)cc1 (stereo not drawn),inactive: -2.21%,
CCN(CC)C(=O)C(=O)c1cccn1-c1cccc(-n2cccc2C(=O)C(=O)N(CC)CC)c1C#N,inactive: 3.61%,
NC(N)=NS(=O)(=O)c1ccc(N/C=C\C(=O)c2ccncc2)cc1,inactive: -13.8%,
COc1ccc2nc(SCC(=O)NC3CC3)c(C#N)cc2c1,inactive: 2.54%,
COCCCC1CCN(C(=O)C2CCC(=O)N(CCc3ccccc3)C2)CC1 (stereo not drawn),inactive: 17.9%,
CCOCCCN(C(=O)CNC(=O)c1ccco1)C(C(=O)NC1CCCC1)c1cccc(OC)c1 (stereo not drawn),inactive: 10.2%,
CC(=O)Nc1ccc(S(=O)(=O)N2CCCC(C(=O)N3CCN(c4ccccc4)CC3)C2)cc1 (stereo not drawn),inactive: 11.2%,

Structure (SMILES),growth rescue (activation),Potency
CC(C)C1Oc2ccccc2N(CC(=O)NC2CCCCC2)C1=O (stereo not drawn),inactive: 16.6%,
C=CCN(c1ccc(Cl)cc1)S(=O)(=O)c1cccc(C(=O)O)c1,inactive: -2.71%,
O=C(COc1ccccc1C(=O)c1cnn(-c2ccccc2)c1)Nc1ccc2ccccc2c1,inactive: -0.0509%,
CCCCn1c(=O)[nH]c(=O)c2c1nc(-c1ccc(OCC)cc1)n2CC,inactive: 4.69%,
S=C(Nc1ccc(Br)cc1Cl)NN1CCOCC1,inactive: -0.534%,
CC(C)Oc1ccc(C(=O)Nc2ccc(C(F)(F)F)n(C)c2=O)cc1,inactive: -0.681%,
CC1=NNC(=O)C1CC(=O)N/N=C/C(C)=C/c1ccccc1 (stereo not drawn),inactive: 12.2%,
C=CC[n+]1c(/C=C2\C=Cc3cc(C)ccc3N2CC)ccc2ccccc21,inactive: -88.9%,
Cc1ccc(C)c(NC(=O)COC(=O)CNC(=O)C2CCCCC2)c1,inactive: 22%,
CCc1nc2c(OCc3ccccc3C(=O)OC)cccn2c1N(C)C(=O)CC(C)C,inactive: -1.66%,
COc1ccc(Cc2[nH]n3c(=O)cc(C)nc3c2-c2ccccc2)cc1,inactive: 13.1%,
Cc1ccc(N2C(=O)CC(N3CCN(c4ccc(F)cc4)CC3)C2=O)c(C)c1 (stereo not drawn),inactive: 6.69%,
CCCC1CCC(c2ccc(C(N)=O)cc2)CC1 (stereo not drawn),inactive: -1.71%,
O=C(CN1CCN(c2ccccn2)CC1)N1CC(O)CO1 (stereo not drawn),inactive: 4.85%,
CCCN(CC(=O)Nc1ccccc1OC)C(=O)c1cnc(Cl)c(Cl)c1,inactive: 4.56%,
COc1ccccc1CNC(=O)C1(C)CCN1Cc1ccc(OC(F)(F)F)cc1 (stereo not drawn),inactive: 9.47%,
CCCCN(C(=O)CSc1nnc(Nc2ccccc2)s1)c1c(N)n(CCC)c(=O)[nH]c1=O,inactive: 7.03%,
COc1ccc(/C=C/C(=O)NC(=S)Nc2ccccc2)cc1OC,inactive: -11.1%,
Cc1ccc2c(c1)Cc1nc3ccccc3nc1-2,inactive: 21.3%,
CCOc1nc(NC(=O)NS(=O)(=O)c2cccc(Cl)c2)nc(-c2ccccc2)n1,inactive: 12.7%,
